PMC10693172
No constants are given. Whether binding was seen depends on the method and setting. Binding seen in cells or lysates may run through a third protein. Some entries that bind do so weakly or less than the wild type.

By UniProt entry, the sequences of proteins in these tests, tags left out.
UniProt Q08211: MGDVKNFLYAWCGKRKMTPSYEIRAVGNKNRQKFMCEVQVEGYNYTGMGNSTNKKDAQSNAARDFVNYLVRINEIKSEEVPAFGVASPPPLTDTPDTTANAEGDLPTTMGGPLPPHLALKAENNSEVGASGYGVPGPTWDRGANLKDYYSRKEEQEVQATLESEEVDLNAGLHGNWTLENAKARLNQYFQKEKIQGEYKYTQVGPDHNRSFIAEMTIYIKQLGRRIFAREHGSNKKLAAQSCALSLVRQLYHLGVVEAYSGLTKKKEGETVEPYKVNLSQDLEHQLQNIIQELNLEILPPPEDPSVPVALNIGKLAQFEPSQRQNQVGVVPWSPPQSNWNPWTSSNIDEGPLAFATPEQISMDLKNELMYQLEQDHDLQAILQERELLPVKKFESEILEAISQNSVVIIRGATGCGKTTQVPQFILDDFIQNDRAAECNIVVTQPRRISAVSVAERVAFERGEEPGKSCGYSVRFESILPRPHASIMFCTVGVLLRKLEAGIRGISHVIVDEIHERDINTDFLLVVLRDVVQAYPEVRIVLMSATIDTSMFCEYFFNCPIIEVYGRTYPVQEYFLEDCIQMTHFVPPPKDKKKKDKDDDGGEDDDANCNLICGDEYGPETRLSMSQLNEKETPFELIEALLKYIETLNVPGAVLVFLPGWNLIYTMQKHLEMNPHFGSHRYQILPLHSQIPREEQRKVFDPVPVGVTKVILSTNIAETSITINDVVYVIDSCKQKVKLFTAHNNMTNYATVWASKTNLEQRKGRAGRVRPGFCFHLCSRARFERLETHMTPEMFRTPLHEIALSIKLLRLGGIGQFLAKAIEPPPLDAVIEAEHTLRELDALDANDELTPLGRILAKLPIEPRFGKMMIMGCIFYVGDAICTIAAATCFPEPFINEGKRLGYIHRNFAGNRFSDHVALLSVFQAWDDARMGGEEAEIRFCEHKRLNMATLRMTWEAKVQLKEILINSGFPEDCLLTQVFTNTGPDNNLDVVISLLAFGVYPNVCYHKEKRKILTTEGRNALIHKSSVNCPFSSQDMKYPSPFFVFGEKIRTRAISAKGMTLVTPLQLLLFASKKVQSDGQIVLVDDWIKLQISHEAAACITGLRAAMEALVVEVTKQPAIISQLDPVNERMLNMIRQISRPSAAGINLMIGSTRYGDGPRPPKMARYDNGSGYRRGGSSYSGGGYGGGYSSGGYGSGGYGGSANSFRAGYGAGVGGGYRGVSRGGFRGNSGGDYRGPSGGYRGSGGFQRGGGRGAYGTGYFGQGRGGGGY
UniProt Q00987: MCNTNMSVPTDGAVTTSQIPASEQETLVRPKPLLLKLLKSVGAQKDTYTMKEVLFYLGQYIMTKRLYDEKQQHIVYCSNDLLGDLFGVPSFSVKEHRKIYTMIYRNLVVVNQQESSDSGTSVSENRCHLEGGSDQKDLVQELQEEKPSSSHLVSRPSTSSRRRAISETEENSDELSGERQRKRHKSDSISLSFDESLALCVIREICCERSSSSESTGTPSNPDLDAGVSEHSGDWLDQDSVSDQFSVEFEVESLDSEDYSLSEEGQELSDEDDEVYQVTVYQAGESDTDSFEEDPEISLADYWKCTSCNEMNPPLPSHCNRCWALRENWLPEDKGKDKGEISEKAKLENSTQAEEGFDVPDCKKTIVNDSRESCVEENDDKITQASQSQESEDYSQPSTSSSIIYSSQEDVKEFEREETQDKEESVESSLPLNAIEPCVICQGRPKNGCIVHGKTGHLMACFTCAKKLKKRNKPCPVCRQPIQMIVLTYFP
UniProt Q86TM6: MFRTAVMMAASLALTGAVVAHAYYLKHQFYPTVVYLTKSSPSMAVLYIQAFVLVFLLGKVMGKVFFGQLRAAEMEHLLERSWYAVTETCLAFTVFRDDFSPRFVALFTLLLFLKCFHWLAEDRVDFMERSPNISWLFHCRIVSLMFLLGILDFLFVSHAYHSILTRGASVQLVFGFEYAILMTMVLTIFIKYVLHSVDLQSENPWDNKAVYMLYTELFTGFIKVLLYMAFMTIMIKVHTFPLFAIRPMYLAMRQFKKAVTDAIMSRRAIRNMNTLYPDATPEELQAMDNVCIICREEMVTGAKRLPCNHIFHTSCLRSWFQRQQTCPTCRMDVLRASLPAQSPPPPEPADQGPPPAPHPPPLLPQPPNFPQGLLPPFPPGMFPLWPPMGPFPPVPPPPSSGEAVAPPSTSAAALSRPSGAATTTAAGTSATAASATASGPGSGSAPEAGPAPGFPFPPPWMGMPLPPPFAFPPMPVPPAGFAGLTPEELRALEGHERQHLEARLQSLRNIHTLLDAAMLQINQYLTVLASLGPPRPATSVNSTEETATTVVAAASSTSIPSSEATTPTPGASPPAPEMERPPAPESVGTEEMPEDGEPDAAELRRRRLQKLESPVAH

Target: DHX9 (DExH-box helicase 9) (human (endogenous in AGS and HGC-27)) (UniProt Q08211)
Assay: co-IP; endogenous proteins, GC cell lysate; immunoprecipitation with a DHX9 antibody, immunoblotting for MDM2 and SYVN1 (Fig. 5B)

Row | Substance | binding
1 | E3 ligase MDM2 (from UniProt Q00987 1-491) | binds
2 | SYVN1 (from UniProt Q86TM6 1-617) | no binding
